According to PubChem BioAssay AID924 (National Center for Advancing Translational Sciences (NCATS), 2007):
About 1,200 (0.92%) of roughly 130,000 compounds were called active. The shares of active, inactive and inconclusive entries below differ from those in the screen. The call rests on the fitted dose curve; in most records, active means well fitted cell-killing curve with a large enough effect; inconclusive means small, poorly fitted or top-dose-only effect; inactive means no such curve, though single readings can be large or run the other way. A potency beside an inconclusive call is a rough fit, not a confirmed value.

Experiment: qHTS Screen for Compounds that Selectively Target Cancer Cells with p53 Mutations: Cytotoxicity of p53ts Cells at the Permissive Temperature; further: nearly all actives have a fitted effect of over 55% in size
Settings: H1299-p53A138V at 32C, ATP luminescence viability, 24 h; series mostly up to 46.1 µM
Procedure, shortened: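 ATP-content luminescence (ATPlite) read-out after 24 h compound exposure at 32C in H1299-p53A138V cells (600/well). Tested up to 46 uM. Normalized to DMSO (0%) and 100 uM tamoxifen (100% killing); Hill-fit AC50.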
Potency means the concentration at half of the fitted maximal effect; tags describe the fitted curve by direction and shape.

Row | SMILES | Potency
1 | Cc1occc1C(=O)Nc1ccc2c(c1)OCCO2 | inconclusive: 15.8 µM [cytotoxic, single point]
2 | Cc1ccc(CNC(=O)c2nc(S(=O)(=O)Cc3ccc(C)cc3)ncc2Cl)cc1 | active: 15.8 µM
3 | CCOc1ccc(/C=C/c2nc3ccccc3n2S(=O)(=O)c2cccc(Cl)c2)cc1 | active: 12.6 µM
4 | Cc1cc(C)cc(NC(=O)CCS(=O)(=O)c2ccc3c(c2)oc(=O)n3C)c1 | inactive
5 | CC(C)c1ccc(NC(=O)C(NS(=O)(=O)c2ccc3c(c2)CCC(=O)N3)c2ccccc2)cc1 (stereo not drawn) | inactive
6 | O=C1c2[nH]nc(-c3ccccc3O)c2C(c2ccc(Cl)cc2)N1CCc1ccccc1 (stereo not drawn) | active: 20 µM
7 | O=C(c1cccs1)N(Cc1nc2sc3c(c2c(=O)[nH]1)CCCC3)C1CCCC1 | inconclusive: 3.16 µM [cytotoxic, single point]
8 | CCCCn1c(CN2CCOCC2)nc2c1c(=O)n(C)c(=O)n2C | inconclusive: 12.6 µM [cytotoxic, partial curve]
9 | CC(C=O)Cc1ccc(C(C)(C)C)cc1 (stereo not drawn) | inconclusive: 0.01 µM [cytotoxic, full curve, poor fit]
10 | c1ccc(-c2noc(C3CCCCC3)n2)nc1 | inconclusive: 15.8 µM [cytotoxic, single point]
11 | COc1ccc2nc(SCc3nc(N)nc(Nc4ccccc4)n3)[nH]c2c1 | inactive
12 | Oc1ccc(NCc2ccccc2OCc2ccc(Cl)cc2)cc1 | inconclusive: 20 µM [cytotoxic, partial curve]
13 | O=c1cnn([C@@H]2O[C@H](CO)[C@@H](O)[C@H]2O)c(=O)[nH]1 | inconclusive: 12.6 µM [cytotoxic, partial curve]
14 | CCCNC(=O)CN1C(=O)CSc2ccc(S(=O)(=O)N3CCC(C)CC3)cc21 | inactive
15 | CCCCCCCN(C(=O)CCl)c1cccc(C)c1 | inconclusive: 35.5 µM [cytotoxic, single point]
16 | CCc1ccc(C2C(C(=O)Nc3ccccc3C)=C(C)Nc3nc(SCc4cccc(OC)c4)nn32)cc1 (stereo not drawn) | inactive
17 | C(=N\n1cnnc1)/c1ccc(N2CCOCC2)cc1 | inconclusive: 12.6 µM [cytotoxic, single point]
18 | CCCC(=O)N1CCN(c2ccc(NC(=O)c3cc4ccccc4o3)cc2Cl)CC1 | inconclusive: 25.1 µM [cytotoxic, single point]
19 | c1ccc2c(c1)CCN(c1nc3cc4c(cc3s1)OCCO4)C2 | active: 1.58 µM
20 | COCc1nnc(NC(=O)c2sc3ccccc3c2Cl)s1 | inconclusive: 12.6 µM [cytotoxic, partial curve]
21 | CCc1ccc(C2=CC(c3c(F)cccc3Cl)n3c(nc4ccccc43)N2)cc1 (stereo not drawn) | inconclusive: 12.6 µM [cytotoxic, partial curve]
22 | CN1CCN(c2ncnc3ccc(-c4cccnc4)cc23)CC1 | inactive
23 | CCNS(=O)(=O)c1c(C)cc(N2CCCC2=O)cc1C | inconclusive: 20 µM [cytotoxic, partial curve]
24 | CCCNC(=O)C1CCC(Cn2c(=O)c3sccc3n(CC(=O)NCc3cccc(OC)c3OC)c2=O)CC1 (stereo not drawn) | inactive
25 | Cc1ccc(C(=O)N/C(=C\c2ccc(Cl)cc2)C(=O)NC2CCCCC2)cc1 | inconclusive: 25.1 µM [cytotoxic, single point]

Row | SMILES | Potency
26 | COC(=O)/C=C/S(=O)(=O)c1ccc(NC(C)=O)cc1 | inconclusive: 31.6 µM [cytotoxic, single point]
27 | COc1ccccc1C(=O)Nc1sc(Nc2ccccc2)nc1C(N)=O | inconclusive: 20 µM [cytotoxic, partial curve]
28 | Cc1ccc(-c2cn3ccc(C)cc3n2)cc1 | active: 0.501 µM
29 | CC(C)CCn1c(/C=C/c2ccccc2)nc2ccccc21 | inconclusive: 10 µM [cytotoxic, partial curve]
30 | COc1cccc2sc(N(C)c3ccccc3)nc12 | active: 10 µM
31 | O=C(CSc1ncnc2c1oc1ccccc12)N1CCCc2ccccc21 | inactive
32 | CC(C)Cc1cc(C(=O)Nc2ccc3c(c2)OCO3)no1 | inconclusive: 12.6 µM [cytotoxic, partial curve]
33 | CC(C)Sc1nnc(CNC(=O)C23CC4CC(CC(C4)C2)C3)n1C1CCCCC1 | inconclusive: 0.0501 µM [cytotoxic, full curve, poor fit]
34 | Cc1ccc(S(=O)(=O)Nc2ccc3nc(-c4ccc(F)cc4)oc3c2)cc1 | inconclusive: 35.5 µM [cytotoxic, single point]
35 | COc1ccc(CNC(=O)c2cc3ccccn3n2)cc1OC | inactive
36 | N#Cc1c(-n2ncnc2-c2ccc(F)cc2)sc2c1CCCCC2 | active: 12.6 µM
37 | Cc1c(-c2ccccc2)nc2c(Cl)cccc2c1C(=O)OCC(=O)c1ccc(F)cc1 | inactive
38 | CCS(=O)(=O)c1ncc(Cl)c(C(=O)NCc2ccc(OC)cc2)n1 | inconclusive: 20 µM [cytotoxic, single point]
39 | COc1ccc(C(=O)Nc2ccc3c(c2)nc2n3CCSC2)cc1 | active: 5.01 µM
40 | Cc1cccc(N2CCN(C(=O)C3CCN(c4ncnc5c4nc4n5CCCCC4)CC3)CC2C)c1 (stereo not drawn) | inconclusive: 35.5 µM [cytotoxic, single point]
41 | COc1ncc2nc(-c3ccc(F)cc3)c(=O)n(C[C@H]3CCCO3)c2n1 | inactive
42 | Cc1ccc(NC(=O)c2noc3c2CCCCC3)cc1 | inconclusive: 25.1 µM [cytotoxic, single point]
43 | Cc1cccc(-c2cc(=O)c3cc(C)ccc3o2)c1 | inconclusive: 10 µM [cytotoxic, full curve]
44 | O=C(N=C1SCC(=O)N1c1ccccc1Cl)c1ccco1 | inconclusive: 12.6 µM [cytotoxic, partial curve]
45 | c1ccc(CNc2nc(-c3ccc4c(c3)OCO4)nc3ccccc23)cc1 | inconclusive: 25.1 µM [cytotoxic, single point]
46 | CCS(=O)(=O)c1oc(-c2ccc(F)cc2)nc1S(=O)(=O)c1ccccc1 | inconclusive: 25.1 µM [cytotoxic, single point]
47 | COc1ccc(N2CC(NC(=O)C3CCCCC3)CC2=O)cc1OC (stereo not drawn) | inactive
48 | Cc1ccc(NC(=O)c2cc3ccccn3n2)cc1F | active: 12.6 µM
49 | O=C(CN1C(=O)C2(SCC(=O)N2c2cccc(Cl)c2)c2ccccc21)NCc1ccccc1 (stereo not drawn) | inactive
50 | CC(C)(C)c1ccc(OCC(=O)NCC2(N3CCOCC3)CCCCC2)cc1 | inconclusive: 10 µM [cytotoxic, partial curve]

Row | SMILES | Potency
51 | CC(C)C(=O)Nc1cccc(NC(=O)c2cc3ccccc3o2)c1 | inconclusive: 15.8 µM [cytotoxic, partial curve]
52 | CN(C)c1ccc(-c2cc(Nc3ccc(F)cc3)ncn2)cc1 | inconclusive: 12.6 µM [cytotoxic, partial curve]
53 | Nc1ccc(-c2n[nH]c(=O)c3ccccc23)cc1N | inactive
54 | COc1ccc(NC2=C(c3ccccc3)C(=O)c3ccccc32)cc1Cl | inconclusive: 31.6 µM [cytotoxic, single point]
55 | O=C(Nc1nc2ccc(F)cc2s1)c1nc(S(=O)(=O)Cc2ccccc2F)ncc1Cl | active: 10 µM
56 | Cc1ccc(OCCCCn2ccnc2)c(Cl)c1 | inconclusive: 20 µM [cytotoxic, single point]
57 | O=C(Nc1ncc(Cc2ccccc2)s1)C1CCCO1 (stereo not drawn) | inconclusive: 20 µM [cytotoxic, single point]
58 | COc1ccc(-c2nc3cc(NC(=O)CSc4ccc(C)cc4)ccc3o2)cc1 | inconclusive: 35.5 µM [cytotoxic, single point]
59 | Cc1cccn2c(=O)c(C(=O)NCc3cccc(F)c3)cnc12 | inactive
60 | Cn1c(SCc2ccc(C#N)cc2Cl)nc2ccccc21 | inconclusive: 15.8 µM [cytotoxic, partial curve]
61 | Cc1ccc(Cl)cc1Nc1nn2c(=O)c3ccc(C(=O)NCc4ccc(F)cc4)cc3nc2s1 | inactive
62 | CC(C)Oc1ccc(C(=O)Nc2c(C(=O)Nc3cccc(F)c3)oc3ccccc23)cc1 | inconclusive: 12.6 µM [cytotoxic, single point]
63 | CC(C)(C)NC(=O)NC(=O)COc1ccccc1C#N | active: 12.6 µM
64 | Cc1csc(NC(=O)c2ccccc2O)n1 | inconclusive: 10 µM [cytotoxic, partial curve]
65 | O=C(Cn1nnc2ccccc21)OCC(=O)c1ccccc1 | inconclusive: 4.47 µM [cytotoxic, full curve, poor fit]
66 | Cc1cc(Nc2cccc(C(F)(F)F)c2)nc2ccc(NC(=O)c3cccc(Cl)c3)cc12 | inconclusive: 35.5 µM [cytotoxic, single point]
67 | CCn1c(C(=O)NCc2ccc(C)cc2)cc2sc(Cl)cc21 | inconclusive: 15.8 µM [cytotoxic, single point]
68 | COc1ccc(-c2onc(C)c2C)cc1S(=O)(=O)N1CCc2ccccc21 | inactive
69 | CCOC(=O)c1ccc(NC(=O)CC2Nc3cccc4cccc(c34)NC2=O)cc1 (stereo not drawn) | inconclusive: 15.8 µM [cytotoxic, single point]
70 | CCN(CC)c1ccc(NC(=O)CN(C)S(=O)(=O)c2cccc3nsnc23)c(C)c1 | inactive
71 | CCOc1ccccc1NC(=O)Nc1ccc2nc(N3CCN(C)CC3)cc(C)c2c1 | inconclusive: 12.6 µM [cytotoxic, partial curve]
72 | O=C(c1ccc2c(c1)OCCCO2)c1cccs1 | inconclusive: 12.6 µM [cytotoxic, partial curve]
73 | CC(C)c1ccc(NC(=O)c2ccc3oc(=O)c(S(=O)(=O)c4ccc(F)cc4)cc3c2)cc1 | active: 10 µM
